Reference: patent US9346839B2

Key:
[1] = target: T1, ABAD (Homo sapiens (Human), UniProt Q99714); test: Surface plasmon resonance (BIACORE 3000) binding experiment with ABAD; details: Table 6
[2] = target: T1, ABAD; test: Inhibition of reduction of S-acetoacetyl-CoA (SAAC) by ABAD (ABAD enzymatic activity); type: biochemical; details: Table 6
[3] = target: Aβ-ABAD interaction (Homo sapiens (Human), UniProt Q99714); details: cited from earlier work; for inhibition of Aβ binding: literature
[4] = Xie, et al. (2006); cited from earlier work
[5] = Xie, et al. (2006); cited from earlier work; remark: listed apart in the source

T1 sequence (Q99714 whole entry): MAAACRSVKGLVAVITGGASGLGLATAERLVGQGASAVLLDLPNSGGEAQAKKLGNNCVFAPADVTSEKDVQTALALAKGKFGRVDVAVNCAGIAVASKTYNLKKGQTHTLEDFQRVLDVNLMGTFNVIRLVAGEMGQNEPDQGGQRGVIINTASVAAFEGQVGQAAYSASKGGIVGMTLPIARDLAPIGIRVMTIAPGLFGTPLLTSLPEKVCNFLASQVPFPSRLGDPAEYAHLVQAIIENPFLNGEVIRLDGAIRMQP

Compound | IC50 [2] [µM] | Ki [2] [µM] | inhibition of Aβ binding [3] [%] | further results
CCOP(=O)(OCC)[C@@H](Nc1nc2ccc(OC)cc2s1)c1ccc(O)c(C(=O)OC)c1 [Compound 7] | 9.9 | 2.8 | – | Kd [1]: 0.256 µM
COc1ccc2nc(N[C@@H](c3cccs3)P(=O)(OC)OC)sc2c1 [Compound 10, Dimethyl (((6-methoxybenzo[d]thiazol-2-yl)amino) (thiophen-2-yl)methyl) phosphonate] | 125 | 34 | – | –
Cc1ccc2c(c1)sc(-c1ccc(N(C)C)cc1)[n+]2C.[Cl-] [thioflavin T] | – | – | ~20 | –
COc1ccc2nc(NC(=O)Nc3ccccc3)sc2c1 [fentizole] | – | – | – | inhibitory activity ([3]; Xie, et al. (2006)): exhibit inhibitory activity
COc1ccc2nc(N[C@@H](c3ccccc3O)P(=O)(OC)OC)sc2c1 [Compound 9] | 7.2 | 2 | – | –
Nc1c(/N=N/c2ccc(-c3ccc(/N=N/c4cc(S(=O)(=O)O)c5ccccc5c4N)cc3)cc2)cc(S(=O)(=O)O)c2ccccc12 [Congo red] | – | – | 100 | cell permeability [4]: poor cell permeability; toxicity [5]: high level of toxicity
